Data published in the supplement of paper PMC12632987.
In all, about 2,300 sequences were measured (“median log2 fold change of GCK-ALFA target abundance (FLAG IP / Myc IP barcode read proportion)”: median about 0.095, lowest 2% from about -0.47 on). The list shows a part of the results.

B1: LC3A_3_1908 (protein)
chain: AEEKIEELRELAKKLGHSEEAIALAEEAARLLLENGNEEGFELLLEAVKALAKLSEADQIAFLRDLLAELKENKDDKEAQLKVAEDFLKLAKNAAEIEEI
B2: LC3A_28_830 (protein)
chain: SKIEERIAKFKAEAEAAKASQEPATLTITVTSEDTVEEAKKIAEAMKEEAEKLKDVPDIGIVIDTDGKIDPEVLKILTDTADEIEEKYPNVTVIIALPEE
B3: LC3A_28_1012 (protein)
chain: MSLIEATKKEAKAAIEEAKKGEDAFLEVTITEEATEEEVKEVLKIIEETAEEISKIPNVKLYVVIDFDGSQEKLDIITDRMEEIEKKYPNVSVVIAYDEK
B4: LC3A_free_46_2358 (protein)
chain: YKAEIDIDLLHEDKEVLEKAVEEIEKAAREIAEKYGLKVEIEKEFEKLPDGSYYARIRITLEGEDKEKVEEAVNELINEIDKISKKYDVASIISYEIEEK
B5: LC3A_3_1607 (protein)
chain: SEELVERQLERLREAGFSEEVLEAARRALTALAEKGFFEAAETLTEELLEAKDLPEEVLVDTLEEILYKVENEDLDEEEVIELIKEEFRVARLEAEIEEL
B6: LC3A_28_687 (protein)
chain: SALSERLLAQVKKAEEELLAEDGATVTITIEEPLTPEETEALVKALKEMAKKIKDKKNVSIIISLSRAVSQESIDALADAAEEIEKEYPNITVIIALEER
B7: LC3A_28_1088 (protein)
chain: SALEAQLAAALAEARAARAAGEEVVLEITVDGTATEEDIAKLKAALAEIAAIARELPALAVVINLTGPNAQEKATILSTFAEELEAEVPNLTVIIALDED
B8: LC3A_28_1281 (protein)
chain: SEIEEEIERAIKEAKEAKEKGEPAVIEIEVPGDATEEEIEKVIKGLEEIAEILKDIPNQAIVINVDSGVKEEHIDKLVDKAEEIEEKYPNVTVIIALDED
B9: LC3A_3_1392 (protein)
chain: FEEIKKEAEETLKKFGRSEEVIEKTKEVLDALEEKGYLEAAKTLLEELKKMKDLSDEILLDFLEDVLEYVETNDASEEEVVEFIKEEARIAKNEGEIIEL
B10: LC3A_3_1687 (protein)
chain: MEELVEEVLELLREQGLSEETLEAAERLLEALKERGYEEAIRELLEAARRLKDAPSEEWKWMFEDLLHLLETEDLSEEEVVEEIRREARVIESALEIEEL
B11: LC3A_free_8_2504 (protein)
chain: MNQKVRDAAVEGLDELEEELVEKAKELGLSRLDILEIELEVGSVIAEIHSLADASPEEILKATEEGLKEIIELAKELSEELAKLAEEKSKEILERLKALL
B12: LC3A_132_297 (protein)
chain: GEEKAKELKKKIKELVEEAKKNIDDEEKVEELLEKIEELIKKAEKELSPELLAKVMEEAAELLWELSQEFLKAGKEHLAMLADGLAIYAESLALRAKEKI
B13: LC3A_127_182 (protein)
chain: SKLEKAKELMRKIAELFKELEKNKGDKEKELKLLKEAIELAKEAAKLLPEIKDDMEDIIKLAEQIKKMIEEGKEDKEEKEDLLELAESTAELAEARLELE
B14: LC3A_127_192 (protein)
chain: ELEEVLKKLIELARKASELLDDPNADPEEIKKLLEEALKAAKKAVELDPSTQPILEDMEQAKELFEQYLAASPEQQEELREQLQLLLDGIEIEAESKLLK
B15: LC3A_28_750 (protein)
chain: MNIADNVAAAIAEAKAAAAKGEEATITITVPDGATEEDIETAIKGLEEIAEIAKDMPALSIVIDVDSGVSEEHLNKLAEKGEELEEKYPNVTVIIALDEE
B16: LC3A_102_133 (protein)
chain: EVERLLKEALEELERRLEEYFEEHPEYSEEERERALELGRRALEAAAEDAVTLEQHGFSDIYAEDRMLEALEELRRIDPRLAEITREAIERLRKRIAALF
B17: LC3A_45_1928 (protein)
chain: MYKATVDLLVPKELAEETYKLIKEKLAELQKKYGPDLKVDWETLEKSYEETKDEEEVYFEVEITHPDKQTALDAADELEEALQKATGGKVASMISIEEVP
B18: LC3A_3_1660 (protein)
chain: VEELIKETLEWLRKAGKSEEVLEAVREALEALAEKGYEEALRVFAELLRELEDLSDELLLDLALEVKELVETEDISEEEMTERIKELARVTRLEAEIEEL
B19: LC3A_28_968 (protein)
chain: MDIDEELEKALKEAKEAAEKGEPTVITIKVPGTTNEEDTEKIIEALEEIAEILKDIKGAAIIIDIEGKVKQENITKLANKAEEIEKKYPNITVIFALDEE
B20: LC3A_3_1606 (protein)
chain: SEELVERLLERLREAGFSEKVLEAAERALTALAERGFEEAAKTLTEELLKAKDLPEEILVDALEDILHIVETEDLDEEEVIELIKEEFRVAKLESEIEEL
B21: LC3A_free_8_2502 (protein)
chain: NRQKVVDTALKGLDELEEELVKKAKELGLSELDILELELEIGSVISEIISNSDASPEEILKTVREGLEEVIKLAKELSEELAKLAKEKSEEILKKLEELL
B22: LC3A_28_1297 (protein)
chain: SALKEELDKVLKEAEEAAKKGEAAVFTLKVPATADQEDIDYVIETMRKIAEKLKDVKGSAIIIDVEAGVKQEFIDKLADEAEKIEEKYPNVTVIIALEEE
B23: LC3A_28_1245 (protein)
chain: SEVEEQIEKAKAEVEAAVAAGEEALVTLTVTENTTEEEVEKIIEAMEEIAKLAETLPALSIIIDVEKGVKEEHINKLADAAEEIEKKYPNVTVIIALEEE
B24: LC3A_3_1779 (protein)
chain: MEERIEELLKRLREAGKSEETLEAFREAAELLKEKGYEKALETLLEEAEKLIDVPDELFLDFLKEVLDLLKNEDLSEEELTEEIKRLARLTLLESEIEEL
B25: LC3A_28_722 (protein)
chain: MELEENIEKALKEAKEAAEKGEEAVIEIKVPGDATEEDIEKVKETLEEIAEITKDLKRTHIIIDVDGGVKQEHIDKLADKAEEIEKKYPNVTVIIALDEE
B26: LC3A_28_838 (protein)
chain: ASGIKSAEELIAEAEAQAAAGEHVVVEIVVEGEVDEEVTDKVIEALEAVSAHVASLGGGTIVILFHKPVPQEHLKRITDKAEELEEKYPGVNIIIALPED
B27: LC3A_28_1146 (protein)
chain: SAGVEAAKAQIDADAEADKDEPEALLTATITSEATVEDAEAIMDHIEEVVEKLKDKEKIFVIVNFEEPVSQEVLDTVAEKGEEIEKKFPNVSVIIALPED
B28: LC3A_free_46_2335 (protein)
chain: YKVDVTIDLLAAPKEEIEKTVKKIVEGAKEIAEKYGGEIEVEIEFYKNEDGTYIARIDITVTVENKETAEKVAQDLSDMIDEIDEETGLVGMFSIDISEV
B29: LC3A_147_517 (protein)
chain: YLVEVEIDMLLKNSKELAEEIAKEIEERLKEKGYKVEVELEFEEDEDGTIFADITIKVEAETLEEAKEVANEILDIIDELLEKNKDKILGALISVSITKK

These binders were tested against MAP1LC3A, Q9H492 (assay: median log2 fold change of GCK-ALFA target abundance (FLAG IP / Myc IP barcode read proportion) (log2 ratio); each designed protein is fused to an ALFA-tag nanobody in HEK293 cells to bring the named protein to FLAG-tagged glucokinase (GCK); Myc marks an untargeted standard; higher = target protein stabilised (more abundant)). Details: target protein: 3xFLAG-MCP-GCK-ALFA reporter; HEK293 landing pad (RPLP).
Summary of the method: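 HEK293 landing-pad cells received a recombined binder library fused to the ALFA nanobody and were induced with 2 μg mL^−1 doxycycline, then transfected with a plasmid encoding a FLAG-tagged target and a Myc-tagged standard. Lysates were collected after 48 h for anti-FLAG and anti-Myc immunoprecipitation, and the circular RNA barcodes were reverse transcribed, amplified and sequenced. Target abundance for each binder is the median log2 ratio of FLAG to Myc barcode read proportions. Barcodes had to reach a proportion of at least 10^−7 in both replicates, each binder needed at least 3 barcodes per replicate, a pseudocount of 10^−6 was applied, and the two replicates were pooled.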

First: B1
Second: B2
The “median log2 fold change” value of the first is higher: 0.381 for the first, 0.132 for the second.

Compared with B3, B4 is higher in “median log2 fold change” value: -0.527 for the first, -0.026 for the second.

B5 and B6 are within 0.2 log units of each other in “median log2 fold change” value: 0.146 for the first, 0.252 for the second.

First: B7
Second: B8
The “median log2 fold change” value of the first is higher: -0.0649 for the first, -0.286 for the second.

B9 and B10 are within 0.2 log units of each other in “median log2 fold change” value: 0.0991 for the first, 0.164 for the second.

Going from B11 to B12, the “median log2 fold change” value rises from -0.195 to 0.131.

B13 and B14 are within 0.2 log units of each other in “median log2 fold change” value: 0.197 for the first, 0.194 for the second.

B15 and B16 are within 0.2 log units of each other in “median log2 fold change” value: 0.03 for the first, -0.111 for the second.

B17 and B18 are within 0.2 log units of each other in “median log2 fold change” value: 0.089 for the first, 0.138 for the second.

Going from B19 to B20, the “median log2 fold change” value rises from -0.284 to 0.167.

Going from B21 to B22, the “median log2 fold change” value rises from -0.151 to 0.272.

B23 and B24 are within 0.2 log units of each other in “median log2 fold change” value: 0.125 for the first, 0.192 for the second.

B25 and B26 are within 0.2 log units of each other in “median log2 fold change” value: 0.0242 for the first, 0.13 for the second.

B27 and B28 are within 0.2 log units of each other in “median log2 fold change” value: -0.0827 for the first, 0.0788 for the second.

For B29, the “median log2 fold change” value was -0.778.
